Some of these densities may be calculated back from excess volumes.
Assay: xn = mol fraction of the nth substance listed
Settings: 101 kPa, x1 = 0.2

C[P+](c1ccccc1)(c1ccccc1)c1ccccc1.[Br-] + CC(=O)O
Settings | mass density [kg/m3]
293.2 K | 1244
303.2 K | 1237
308.2 K | 1233
313.2 K | 1230
318.2 K | 1226
323.2 K | 1223
333.2 K | 1216
338.2 K | 1212
343.2 K | 1208
348.2 K | 1205
363.2 K | 1194

— a compilation of properties of binary mixtures (doi:10.1016/j.molliq.2021.116575)
